Test results: PubChem BioAssay AID504466 (National Center for Advancing Translational Sciences (NCATS), 2011)
Hit rate of the full screen: of about 330,000 compounds, about 4,200 (1.3%) were called active. The shares of active, inactive and inconclusive entries below differ from those in the screen. Calls follow the shape of the dose curve; as a rule, active = well fitted activation curve with a large enough effect; inconclusive = small, poorly fitted or top-dose-only effect; inactive = no such curve, though single readings can be large or run the other way. Potencies of inconclusive entries are doubtful fits and often do not repeat.
Potency is read from the fitted curve at half-maximal effect; tags tell the direction and shape of the fitted curve.

Assay: qHTS screen for small molecules that induce genotoxicity in human embryonic kidney (HEK293T) cells expressing luciferase-tagged ELG1; also: nearly all actives have a fitted effect of over 60% in size
Conditions: HEK293T ELG1-luciferase reporter, luminescence, 16 h; series mostly up to 46 µM
In short: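 Cells (2,000/well) expressing the ELG1-luciferase fusion are dosed by pin tool and kept 16 hr at 37 °C, 5% CO2. Signal comes from ONE-Glo luciferase reagent after 30 min at room temperature.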
In the case of `CCCC(=O)Nc1ccc(-c2nc3cc(C)c(C)cc3o2)cc1`, the Potency is reported as inconclusive: 1.84 µM [activator, full curve].
For `COc1cccc(NC(=O)N2CCCC2C(=O)Nc2cc(C)ccc2OC)c1` (configuration not stated), the Potency was “inactive”.
In the case of `c1ccc(Cn2ccc(-c3cnc(-c4ccccc4)s3)n2)cc1`, the Potency is reported as inconclusive: 1.64 µM [activator, full curve].
In the case of `CC(=O)c1c(N2CCOCC2)nc2ccc(Br)cc2c1-c1ccccc1`, the Potency is reported as “inactive”.
For `CC(C)CN1C(=O)c2ccc(NC(=O)c3ccccc3F)cc2C1=O`, the Potency was inconclusive: 32.6 µM [activator, partial curve, poor fit].
With `COc1ccc2cc(-c3cc(C(=O)OCC(=O)NC4CCS(=O)(=O)C4)c4ccccc4n3)ccc2c1` (configuration not stated) the Potency was inconclusive: 11.6 µM [activator, partial curve].
In the case of `CCOC(=O)c1[nH]c2cc(OC)c(OC)cc2c1NC(=O)CN1CCN(C)CC1`, the Potency is reported as active: 20.6 µM.
For `O=C(c1cc(-c2cccc(O)c2)on1)N1CCCCC1`, the Potency was active: 3.66 µM.
In the case of `CC(C)C(=O)Nc1ccc(-c2nc3ncccc3o2)cc1`, the Potency is reported as inconclusive: 2.91 µM [activator, partial curve, poor fit].
In the case of `CC(C)(C)NC(=S)NCCc1ccccc1`, the Potency is reported as inconclusive: 6.51 µM [activator, full curve, poor fit].
In the case of `Cc1cc(NC(=O)c2ccc(Cl)cc2)ccc1NC(=O)c1ccccc1Cl`, the Potency is reported as “inactive”.
For `O=C(NCC1(c2ccccc2)CCOCC1)c1cccs1`, the Potency was “inactive”.
In the case of `CCN(CC)c1ccc(/C=N/NC(=O)OC(C)(C)C)cc1`, the Potency is reported as inconclusive: 9.2 µM [activator, partial curve].
For `COc1ccc(NC(=O)CSc2ccc(-c3ccccn3)nn2)cc1OC`, the Potency was inconclusive: 29.1 µM [activator, single point].
In the case of `O=C(O)C/C(=C\c1ccc2c(c1)OCO2)c1nc2ccccc2s1`, the Potency is reported as inconclusive: 20.6 µM [activator, partial curve].
With `COc1cccc(N(C(=O)c2cccs2)c2nc3ccccc3s2)c1` the Potency was inconclusive: 12.6 µM [activator, single point].
In the case of `Cc1ccc(OCC(=O)Nc2ccccc2C(N)=O)cc1`, the Potency is reported as inconclusive: 16.4 µM [activator, partial curve].
For `O=C(Nc1cnc2ccccc2c1)c1ccncc1`, the Potency was active: 2.31 µM.
In the case of `Nc1ccc(-c2nnc(-c3ccc(-c4ccccc4)cc3)o2)cc1`, the Potency is reported as inconclusive: 8.2 µM [activator, single point].
In the case of `CCn1c(SCC(=O)Nc2ccc(-c3nc4ccc(C)cc4s3)cc2)nnc1-c1ccccc1`, the Potency is reported as inconclusive: 23.1 µM [activator, partial curve, poor fit].
With `CCC1CCCCN1CCCNC(=O)C1CCN(Cc2nc(-c3ccc(Cl)cc3)oc2C)CC1` (configuration not stated) the Potency was “inactive”.
For `CC(C)CN1C(=O)c2ccc(C(=O)Nc3ccccn3)cc2C1=O`, the Potency was inconclusive: 5.8 µM [activator, partial curve, poor fit].
With `Cc1ccc(N=Nc2c(N)nn(-c3ccccc3)c2N)cc1` the Potency was inconclusive: 11.6 µM [activator, partial curve].
With `O=C(N/N=C/c1ccc2ccccc2c1)c1ccc(COc2ccc3c(c2)CCC3)o1` the Potency was inconclusive: 9.2 µM [activator, partial curve, poor fit].
In the case of `O=C(c1cc(-c2ccc3c(c2)OCO3)on1)N1CCCCC1`, the Potency is reported as active: 0.116 µM.
In the case of `CC(C)CCn1cnc2c(sc3nc4c(cc32)CSC(C)(C)C4)c1=O`, the Potency is reported as inconclusive: 1.84 µM [activator, full curve].
For `O=C(Nc1ccccc1)Nc1ccc(C(=O)N2CCOCC2)cc1`, the Potency was inconclusive: 13 µM [activator, partial curve, poor fit].
With `CC1Cc2nc(SCC(=O)Nc3ccc4c(c3)OCO4)n(Cc3ccccc3)c(=O)c2S1` (configuration not stated) the Potency was inconclusive: 7.94 µM [activator, partial curve, poor fit].
In the case of `CCN(CC)c1ccc(/C=N/N2CCOCC2)c(O)c1`, the Potency is reported as inconclusive: 18.4 µM [activator, partial curve].
With `COc1ccc(CCC(=O)OCC(=O)Nc2sccc2C#N)cc1` the Potency was “inactive”.
For `O=C(N/N=C/c1cccc2ccccc12)c1cc(C2CC2)[nH]n1`, the Potency was “inactive”.
With `CC1CCN(C(=O)C2CC(c3ccc(F)cc3)=NO2)CC1` (configuration not stated) the Potency was inconclusive: 16.4 µM [activator, partial curve, poor fit].
For `Cc1nnc(SCC(=O)Nc2nsc(-c3ccc(C(C)(C)C)cc3)n2)s1`, the Potency was active: 3.26 µM.
With `Cc1cc(C=O)c(C)n1-c1cccc(C(=O)O)c1` the Potency was “inactive”.
In the case of `CCOC(=O)CSc1nc2cc3c(cc2cc1C#N)OCO3`, the Potency is reported as active: 23.1 µM.
In the case of `CCOc1ccc(N(CC(=O)Nc2ccc(C)cc2)S(C)(=O)=O)cc1`, the Potency is reported as inconclusive: 14.6 µM [activator, partial curve].
In the case of `Cc1ccc(C2=NN(CC(=O)NCCN(CC(C)C)CC(C)C)C(=O)CC2)cc1`, the Potency is reported as “inactive”.
For `CC(C)OCCCNc1ncnc2c1[nH]c1ccccc12`, the Potency was “inactive”.
For `COc1ccc(S(=O)(=O)Nc2cc3c4c(c2)CCN4C(=O)CC3)cc1`, the Potency was inconclusive: 18.3 µM [activator, single point].
For `COc1cccc(C(=O)Nc2nc3ccccc3s2)c1`, the Potency was active: 4.11 µM.
With `C/C(CC(=O)Nc1ccccc1-c1ccccc1)=N\NC(=O)COc1ccc(C)cc1Br` the Potency was active: 23.1 µM.
With `CC(=O)Nc1cccc(-c2nc3ccccc3s2)c1C` the Potency was inconclusive: 23.1 µM [activator, partial curve, poor fit].
With `Oc1ccccc1-c1cc(-c2ccco2)[nH]n1` the Potency was active: 5.8 µM.
With `CCOC(=O)c1c(C)[nH]c(C(=O)COC(=O)/C=C/c2cccc(OC)c2OC)c1C` the Potency was inconclusive: 23.1 µM [activator, single point].
With `C/C(=N\Nc1ncc(Cl)cc1Cl)c1cccs1` the Potency was active: 5.17 µM.
With `CCOc1ccc(C(=O)O/N=C(\N)c2ccccn2)cc1OCC` the Potency was inconclusive: 11.6 µM [activator, partial curve, poor fit].
In the case of `CS(=O)(=O)c1cccc(C(=O)Nc2ccc3c(c2)OCCCO3)c1`, the Potency is reported as inconclusive: 20.6 µM [activator, single point].
